# “And” between values parts separate entries of the source, which are not always exact repeats. Equal entries are not always repeated. Structures can show the parent of a compound that is named as a salt. Some of the results follow. Rule as the data show it: active = 0.5 or less and inactive = the rest. Repeats are few or missing, and single values can be far off.
# What was measured:
# Conditions in all cases: 50 µM; 24 h
# [1] = test system: HeLa VPS33A reporter cells; assay: relative cell viability (CellMask signal) vs DMSO (fraction of DMSO); higher = less cytotoxic;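 also: primary screen of an FDA-approved drug library in HeLa reporter cells in 96-well format, CellMask signal normalized to DMSO-treated wells set as 1, under 0.5 deemed highly cytotoxic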
# [2] = test system: HeLa VPS33A R498W KI + HA-SDC1-FLAG; assay: relative GAG core protein HA-SDC1 amount per cell number vs DMSO (fraction of DMSO); higher = more SDC1 (GAG core protein);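 also: HA-SDC1 level read out by In-Cell Western staining with an anti-HA antibody against the N-terminal tag, screening FDA-approved library drugs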
# [3] = test system: HeLa VPS33A KO + NLuc-VPS33A R498W; assay: relative mutant VPS33A R498W amount (NanoLuc luminescence) vs DMSO (fraction of DMSO); HeLa model of a glycosaminoglycan (GAG) storage disease; KI is knock-in and KO knock-out; SDC1 is syndecan 1; higher = higher mutant VPS33A level;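 also: screen of an FDA-approved drug library, NanoLuc luminescence read after lysing the treated cells, taken as a measure of mutant VPS33A protein stability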
Compound,relative cell viability [1],relative GAG core protein HA-SDC1 amount per cell number [2],relative mutant VPS33A R498W amount [3]
C[C@@H]1CCN(C(=O)CC#N)C[C@@H]1N(C)c1ncnc2[nH]ccc12,1.02 and 0.994,inactive: 0.984 and inactive: 0.976,0.375 and 0.364
Oc1ccc(C2CNCCc3c2cc(O)c(O)c3Cl)cc1 (stereo not given) [Fenoldopam],0.948,inactive: 0.856,1.35
CC1(C)[C@@H](O[C@H]2O[C@H](C(=O)O)[C@@H](O)[C@H](O)[C@H]2O[C@@H]2O[C@H](C(=O)O)[C@@H](O)[C@H](O)[C@H]2O)CC[C@]2(C)[C@H]3C(=O)C=C4[C@@H]5C[C@@](C)(C(=O)O)CC[C@]5(C)CC[C@@]4(C)[C@]3(C)CC[C@@H]12 [Glycyrrhizic acid],1.12,inactive: 0.924,1.3
C[C@]12CC[C@@H]3c4ccc(O)cc4CC[C@H]3[C@@H]1CC[C@@H]2O [α-Estradiol],1.23,active: 0.473,0.818
CCN(CCO)CCCC(C)Nc1ccnc2cc(Cl)ccc12 (stereo not given) [Hydroxychloroquine Sulfate],1.08,inactive: 0.875,1.15
S=c1[nH]cnc2nc[nH]c12 [Mercaptopurine (6-MP)],1.1,inactive: 0.864,6.41
CC1(C)S[C@@H]2[C@H](NC(=O)[C@H](NC(=O)N3CCNC3=O)c3ccccc3)C(=O)N2[C@H]1C(=O)O [Azlocillin sodium salt],0.982,inactive: 0.971,1.54
O=C(C1CCCCC1)N1CC(=O)N2CCc3ccccc3C2C1 (stereo not given) [Praziquantel],0.967,inactive: 1.03,1.17
Nc1nnc(-c2cccc(Cl)c2Cl)c(N)n1 [Lamotrigine],1.04,inactive: 0.873,1.21
C[C@H]1C[C@H]2[C@@H]3CCC4=CC(=O)C=C[C@]4(C)[C@@]3(F)[C@@H](O)C[C@]2(C)[C@@]1(O)C(=O)CO [Betamethasone],0.991,inactive: 1.07,1.1
Cc1ccccc1C(=O)O [o-Toluic acid],1.01,inactive: 0.921,1.38
COc1c(C)c2c(c(O)c1C/C=C(\C)CCC(=O)O)C(=O)OC2 [Mycophenolic acid],0.986,inactive: 0.97,2.09
O=C(O)c1ccc(O)cc1 [4-Hydroxybenzoic acid],1.08,inactive: 0.805,1.17
Cc1ccccc1C(=O)Nc1ccc(C(=O)N2CCCC(O)c3cc(Cl)ccc32)c(C)c1 (stereo not given) [Tolvaptan],1.02,active: 0.484,0.668
CN(Cc1ccc(C(C)(C)C)cc1)Cc1cccc2ccccc12 [Butenafine HCl],1.01,inactive: 0.641,0.645
CC[N+](CC)(CC)CCOc1cccc(OCC[N+](CC)(CC)CC)c1OCC[N+](CC)(CC)CC [Gallamine Triethiodide],1.11,inactive: 0.684,1.17
CC(C)[C@H](O)C(=O)N[C@@H](C)C(=O)N[C@@H]1C(=O)N(C)CCc2ccccc21,1.04,inactive: 0.693,6.97
Clc1ccccc1CN1CCc2sccc2C1 [Ticlopidine HCl],1.01,inactive: 0.822,0.661
Cc1cn(-c2cc(NC(=O)c3ccc(C)c(Nc4nccc(-c5cccnc5)n4)c3)cc(C(F)(F)F)c2)cn1 [Nilotinib monohydrochloride monohydrate],1.09,inactive: 1.28,0.904
CC(C)(C)c1ccc(C(=O)CCCN2CCC(OC(c3ccccc3)c3ccccc3)CC2)cc1 [Ebastine],1.12,inactive: 0.735,0.0807
CCOC(=O)n1ccn(C)c1=S [Carbimazole],1,inactive: 0.898,1.1
CO/N=C(\C(=O)N[C@@H]1C(=O)N2C(C(=O)O)=C(COC(C)=O)CS[C@H]12)c1csc(N)n1 [Cefotaxime (sodium salt)],0.978,inactive: 0.857,1.64
COc1ccccc1Oc1c(NS(=O)(=O)c2ccc(C(C)(C)C)cc2)nc(-c2ncccn2)nc1OCCO [Bosentan],1.11,inactive: 1.17,1.13
COc1cc(-c2oc3cc(O)cc(O)c3c(=O)c2O)ccc1O [Isorhamnetin],0.988,inactive: 0.842,0.357
CNC(=C[N+](=O)[O-])NCCSCc1ccc(CN(C)C)o1 [Ranitidine],1.16,inactive: 1.06,1.41
